Data from the supplement of paper PMC5998384.

Tests used:
HeLa Kyoto [1] = assay: melting temperature (median over replicates), in situ; higher = more thermally stable
HeLa Kyoto [2] = assay: solubility change mitosis vs G1/S (difference of NP-40 vs SDS log2 ratios) (log2 ratio difference); higher = more soluble in mitosis
HeLa Kyoto [3] = assay: solubility in G1/S (NP-40 vs SDS abundance) (log2 ratio); higher = more soluble; conditions: cell cycle stage: G1/S
HeLa Kyoto [4] = assay: thermal stability score vs G1/S (z-score of summed log2 fold changes over temperatures); higher = more thermally stable than in G1/S
[5] = cell cycle stage: early G1 (4.5 h after nocodazole release)
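Throughout, for melting temperature (median over replicates), in situ: HeLa Kyoto cells synchronized by double thymidine or nocodazole block, proteins quantified by TMT10plex mass spectrometry, three independent biological replicates.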
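Throughout, for solubility change mitosis vs G1/S (difference of NP-40 vs SDS log2 ratios): synchronized HeLa Kyoto cells (double thymidine block for G1/S, nocodazole release for mitosis), protein amounts in NP-40 versus SDS lysates quantified by mass spectrometry, three biological replicates.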
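Throughout, for solubility in G1/S (NP-40 vs SDS abundance): HeLa Kyoto cells arrested at G1/S by double thymidine block, proteins quantified by TMT10plex mass spectrometry in mild NP-40 versus SDS extracts, three biological replicates.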
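Throughout, for thermal stability score vs G1/S (z-score of summed log2 fold changes over temperatures): synchronized HeLa Kyoto cells, proteins quantified by TMT10plex mass spectrometry, three biological replicates, mitosis taken 0.5 h after nocodazole release, G1/S directly after double thymidine block.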

Row | Substance | melting temperature (HeLa Kyoto [1]; cell cycle stage: G1/S) | melting temperature (HeLa Kyoto [1]; cell cycle stage: mitosis) | solubility change mitosis (log2) (HeLa Kyoto [2]) | solubility in G1/S (log2) (HeLa Kyoto [3]) | thermal stability score (HeLa Kyoto [4]; [5]) | thermal stability score (HeLa Kyoto [4]; cell cycle stage: mitosis)
1 | MSALCWGRGAAGLKRALRPCGRPGLPGKEGTAGGVCGPRRSSSASPQEQDQDRRKDWGHVELLEVLQARVRQLQAESVSEVVVNRVDVARLPECGSGDGSLQPPRKVQMGAKDATPVPCGRWAKILEKDKRTQQMRMQRLKAKLQMPFQSGEFKALTRRLQVEPRLLSKQMAGCLEDCTRQAPESPWEEQLARLLQEAPGKLSLDVEQAPSGQHSQAQLSGQQQRLLAFFKCCLLTDQLPLAHHLLVVHHGQRQKRKLLTLDMYNAVMLGWARQGAFKELVYVLFMVKDAGLTPDLLSYAAALQCMGRQDQDAGTIERCLEQMSQEGLKLQALFTAVLLSEEDRATVLKAVHKVKPTFSLPPQLPPPVNTSKLLRDVYAKDGRVSYPKLHLPLKTLQCLFEKQLHMELASRVCVVSVEKPTLPSKEVKHARKTLKTLRDQWEKALCRALRETKNRLEREVYEGRFSLYPFLCLLDEREVVRMLLQVLQALPAQGESFTTLARELSARTFSRHVVQRQRVSGQVQALQNHYRKYLCLLASDAEVPEPCLPRQYWEELGAPEALREQPWPLPVQMELGKLLAEMLVQATQMPCSLDKPHRSSRLVPVLYHVYSFRNVQQIGILKPHPAYVQLLEKAAEPTLTFEAVDVPMLCPPLPWTSPHSGAFLLSPTKLMRTVEGATQHQELLETCPPTALHGALDALTQLGNCAWRVNGRVLDLVLQLFQAKGCPQLGVPAPPSEAPQPPEAHLPHSAAPARKAELRRELAHCQKVAREMHSLRAEALYRLSLAQHLRDRVFWLPHNMDFRGRTYPCPPHFNHLGSDVARALLEFAQGRPLGPHGLDWLKIHLVNLTGLKKREPLRKRLAFAEEVMDDILDSADQPLTGRKWWMGAEEPWQTLACCMEVANAVRASDPAAYVSHLPVHQDGSCNGLQHYAALGRDSVGAASVNLEPSDVPQDVYSGVAAQVEVFRRQDAQRGMRVAQVLEGFITRKVVKQTVMTVVYGVTRYGGRLQIEKRLRELSDFPQEFVWEASHYLVRQVFKSLQEMFSGTRAIQHWLTESARLISHMGSVVEWVTPLGVPVIQPYRLDSKVKQIGGGIQSITYTHNGDISRKPNTRKQKNGFPPNFIHSLDSSHMMLTALHCYRKGLTFVSVHDCYWTHAADVSVMNQVCREQFVRLHSEPILQDLSRFLVKRFCSEPQKILEASQLKETLQAVPKPGAFDLEQVKRSTYFFS [POLRMT] | 50.5 °C | 49.2 °C | -0.0655 | -0.535 | -0.749 | 1.6
2 | MSFPPHLNRPPMGIPALPPGIPPPQFPGFPPPVPPGTPMIPVPMSIMAPAPTVLVPTVSMVGKHLGARKDHPGLKAKENDENCGPTTTVFVGNISEKASDMLIRQLLAKCGLVLSWKRVQGASGKLQAFGFCEYKEPESTLRALRLLHDLQIGEKKLLVKVDAKTKAQLDEWKAKKKASNGNARPETVTNDDEEALDEETKRRDQMIKGAIEVLIREYSSELNAPSQESDSHPRKKKKEKKEDIFRRFPVAPLIPYPLITKEDINAIEMEEDKRDLISREISKFRDTHKKLEEEKGKKEKERQEIEKERRERERERERERERREREREREREREREKEKERERERERDRDRDRTKERDRDRDRERDRDRDRERSSDRNKDRSRSREKSRDREREREREREREREREREREREREREREREREREREKDKKRDREEDEEDAYERRKLERKLREKEAAYQERLKNWEIRERKKTREYEKEAEREEERRREMAKEAKRLKEFLEDYDDDRDDPKYYRGSALQKRLRDREKEMEADERDRKREKEELEEIRQRLLAEGHPDPDAELQRMEQEAERRRQPQIKQEPESEEEEEEKQEKEEKREEPMEEEEEPEQKPCLKPTLRPISSAPSVSSASGNATPNTPGDESPCGIIIPHENSPDQQQPEEHRPKIGLSLKLGASNSPGQPNSVKRKKLPVDSVFNKFEDEDSDDVPRKRKLVPLDYGEDDKNATKGTVNTEEKRKHIKSLIEKIPTAKPELFAYPLDWSIVDSILMERRIRPWINKKIIEYIGEEEATLVDFVCSKVMAHSSPQSILDDVAMVLDEEAEVFIVKMWRLLIYETEAKKIGLVK [RBM25] | 48.2 °C | 50.1 °C | 0.779 | -1.08 | -1.1 | 1.79
3 | STAT3 (sequence left out) | 48.8 °C | 49.8 °C | -0.168 | -0.0459 | 0.472 | 2.7
